Hit rate of the full screen: of about 44,000 compounds, about 340 (0.77%) were called active. Another 5% or so got no clear call; they are omitted. The call rests on the fitted dose curve; in most records, active means well fitted inhibition curve with a large enough effect; inconclusive means small, poorly fitted or top-dose-only effect; inactive means flat fitted curve, though single readings scatter. This is one part of the list.
Test: Acumen qHTS Assay for Inhibitors of the mTORC1 Signaling Pathway in MEF (Tsc2-/-, p53-/-) Cells: Sytravon;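 further: plate controls were DMSO for no effect and rapamycin for full effect; nearly all actives have a fitted effect of over 50% in size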
Conditions: phospho-rpS6 immunofluorescence/PI, 24 h; series mostly up to 38.3 µM; activity change, negative = inhibition: at the top concentration
How it was run: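 Plate MEFs (Tsc2-/-, p53-/-, empty vector) in DMEM/10% FBS; after 24 h add compound, incubate 24 h at 37 degree Celsius; fix in PFA/TX-100, block, stain phospho-rpS6 and 10 uM PI; scan at 488 nm; report % positive cells.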

| SMILES | activity change, negative = inhibition |
| --- | --- |
| CCC1=C(c2ccc(C)cc2)S(=O)(=O)N=C1N1CCC(C(=O)NCCc2ccc(Cl)cc2)CC1 | inactive: -17.8% |
| Cc1ccc(S(=O)(=O)C(CNC(=O)C(=O)NCCc2ccc(Cl)cc2)c2cccs2)cc1 (stereo not drawn) | inactive: -4.09% |
| CCCS(=O)(=O)N1CC(=O)N(c2ccc(C)cc2C)C(C)(C(=O)NC2CCCCCC2)C1 (stereo not drawn) | inactive: 2.72% |
| O=C(Cn1c(=O)nc(-c2ccccc2)c2cc(Cl)ccc21)NCc1ccc(Cl)cc1 | inactive: 1.63% |
| CCOc1ccc(CCNC(=O)c2ccc3c(c2)N(Cc2ccccc2F)C(=O)c2ccccc2S3=O)cc1OCC (stereo not drawn) | inactive: -9.24% |
| COc1ccc(CCNS(=O)(=O)c2cc(-c3onc(C)c3C)ccc2OC)cc1OC | inactive: -3.21% |
| O=C(CCS(=O)(=O)c1cc2c3c(c1)CCN3C(=O)CC2)Nc1cccc(Br)c1 | inactive: -7.25% |
| O=C(Nc1cnn(Cc2ccc(Cl)cc2Cl)c1)c1noc2c1CCc1ccccc1-2 | inactive: -6.66% |
| COc1ccc(C(CC(=O)Nc2cc(OC)c(OC)c(OC)c2)N2Cc3ccccc3C2=O)cc1 (stereo not drawn) | inactive: -0.463% |
| Cc1ccc(C)c(Nc2nn3c(=O)c4cc5c(cc4nc3s2)OCO5)c1 | inactive: -1.46% |
| CCc1ccc(NC(=O)CSc2nc(=O)n(Cc3ccncc3)c3c2CCC3)cc1 | inactive: 2% |
| CCN1CCN(CCCNC(=O)Cn2c(-c3cccs3)cc3cc(F)ccc32)CC1 | inactive: -1.55% |
| O=C(COCc1cc(-c2ccc3c(c2)OCO3)on1)Nc1cc(C(F)(F)F)ccc1Cl | inactive: -0.359% |
| Cc1cc2c(cc1S(=O)(=O)CCC(=O)N1CCCCC1C)OCC(=O)N2 (stereo not drawn) | inactive: -0.121% |
| CCOC(=O)N1CCc2c(sc(NCc3cccs3)c2C(=O)Nc2ccc(OC)cc2OC)C1 | inactive: 0.808% |
| COc1ccccc1N1CCN(S(=O)(=O)CCNC(=O)Cc2ccc(Cl)cc2)CC1 | inactive: 2.51% |
| O=c1c(S(=O)(=O)c2ccccc2)cn(Cc2cccc(F)c2)c2cc(N3CCCC3)c(F)cc12 | inactive: -4.92% |
| Cn1c(=O)c2c(nc(N3CCOCC3)n2Cc2ccccc2Cl)n(C)c1=O | inactive: 3.91% |
| CC(C)Cn1c(-c2ccccc2Cl)nc2ccccc21 | inactive: -7.89% |
| O=C(NCCc1ccc(Cl)cc1)c1nnc(Cc2ccc(Cl)cc2Cl)o1 | inactive: 3.21% |
| Cc1nc(S(=O)(=O)N2CCN(c3cccc(Cl)c3)CC2)cn1C | inactive: -0.355% |
| COc1cc(OC)cc(-c2nnc(SCC(=O)c3ccc([N+](=O)[O-])cc3)o2)c1 | inactive: -3.05% |
| O=C(NCCc1ccc(Cl)cc1)c1ccc2nc(CCc3ccccc3)oc2c1 | inactive: 4.21% |
| COc1ccc(N(CC(=O)NCCc2ccc(C)cc2)S(=O)(=O)c2c(C)nn(C)c2C)cc1 | inactive: -1.97% |

| SMILES | activity change, negative = inhibition |
| --- | --- |
| CC(C)Cn1c(CN2CCN(c3cccc(Cl)c3)CC2)nc2c1c(=O)[nH]c(=O)n2C | inactive: -22% |
| COc1cc(Nc2nn(-c3ccc(OC(F)(F)F)cc3)nc2C(C)=O)cc(OC)c1 | inactive: 2.53% |
| CCOC(=O)c1cc(-c2ccc(OC)cc2)n(CCC(=O)Nc2cccc(C)c2C)c1C | inactive: -0.575% |
| CCCCc1nn2c(=O)cc(COC(=O)c3ccc4c(c3)OCO4)nc2s1 | inactive: -1.13% |
| COc1cc(OC)cc(-n2c(=O)c3ccccc3n(Cc3ccccc3C#N)c2=O)c1 | inactive: 1.74% |
| COc1ccccc1C(=O)NCC(c1ccc(N(C)C)cc1)N1CCc2ccccc21 (stereo not drawn) | inactive: 0% |
| COC(=O)c1ccccc1NC(=O)Cn1nnc(-c2ccc(OC)cc2)n1 | inactive: 0.698% |
| CCOc1ccc(-c2cn3c(n2)sc2cc(C(=O)NCCCN4CCCCC4)ccc23)cc1 | inactive: 2.45% |
| CC1=C(C(=O)Nc2ccccc2)C(C(C)C)n2nc(SCc3ccccc3C)nc2N1 (stereo not drawn) | inactive: -9.91% |
| CCC(=O)Nc1cc(-c2cn3cccnc3n2)ccc1OC | inactive: 5.51% |
| CCc1ccc(NC(=O)Cn2nc(C(F)(F)F)c3c2CCCC3)cc1 | inactive: 3.48% |
| COc1cc(NC(=O)c2ccc(-c3nc(CSc4ccccc4)c(C)o3)cc2)cc(OC)c1 | inactive: -7.26% |
| O=C(Cn1ncn2cccc2c1=O)NCc1cccc(Br)c1 | inactive: 1.28% |
| COc1ccc(N(CC(C)C)S(=O)(=O)c2nnc(NC(=O)c3ccco3)s2)cc1 | inactive: -10.5% |
| Cc1c(Cl)cccc1NC(=O)Cn1c(=O)cc(C)c2c(C)nn(-c3cccc(F)c3)c21 | inactive: -14.9% |
| COc1ccc(NC(=O)c2cc(-c3ccc(F)cc3)no2)cc1OC | inactive: 6.19% |
| COc1ccccc1Cc1nc2ccccc2nc1SCC(=O)Nc1c(C)cccc1C | inactive: 8.51% |
| Cc1cc(NC(=O)c2ccco2)cc(-c2nc3ccccc3o2)c1O | inactive: -0.128% |
| CCCNC(=O)Cn1nc(-c2ccc(C)cc2)c2cnc3ccc(CC)cc3c21 | inactive: -0.244% |
| CCn1c(C)c(C)c2cc(C(=O)N3CCN(c4ccccc4)CC3)ccc21 | inactive: 5.05% |
| CCN(C(=O)CCS(=O)(=O)c1cc2c(cc1C)NC(=O)CO2)c1cccc(C)c1 | inactive: 6.69% |
| CN(C)CCN(Cc1ccccc1)S(=O)(=O)c1csc(C(N)=O)c1 | inactive: 3.82% |
| Cc1ccc(Cl)cc1NC(=O)CN1C(=O)c2ccccc2Sc2ncccc21 | inactive: -8.21% |
| Cc1ccc(CNS(=O)(=O)c2c(C)nc3sc(C)cn3c2=O)cc1 | inactive: 3.18% |

Reference: PubChem BioAssay AID493208 (National Center for Advancing Translational Sciences (NCATS), 2011)
